# Measurements: PubChem BioAssay AID504832 (National Center for Advancing Translational Sciences (NCATS), 2011)
# Hit rate of the full screen: of about 310,000 compounds, about 18,000 (5.8%) were called active. Inconclusive results, whose numbers are uncertain, are shown with a selection of clear calls. Calls follow the shape of the dose curve; as a rule, active = well fitted inhibition curve with a large enough effect; inconclusive = small, poorly fitted or top-dose-only effect, or another doubt; inactive = no such curve, though single readings can be large or run the other way. Potencies of inconclusive entries are left out as doubtful fits.
# Experiment: Primary qHTS for delayed death inhibitors of the malarial parasite plastid, 48 hour incubation
# Conditions: P. falciparum luciferase growth in erythrocytes; series mostly up to 28.7 µM; activity change, negative = inhibition: at the top concentration
# Procedure, shortened: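 Firefly luciferase activity from engineered P. falciparum reports growth; inhibitors lower the luminescent signal. Cultures contained 2% hematocrit erythrocytes at 0.1% final parasitemia.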
# % is scaled to controls: 0 for no effect and ±100 for the full control effect; potency is read from the fitted curve at half-maximal effect; tags tell the direction and shape of the fitted curve.
SMILES,Potency,"activity change, negative = inhibition"
CCOc1cc(C(C(=O)NCC2CCCO2)N(C(=O)Cn2nnc3ccccc32)c2ccccc2OC)ccc1O (centres undefined),"inconclusive [inhibitor, partial curve, poor fit]",
O=C(N/N=C1/CCCc2ccccc21)C(c1ccccc1)c1ccccc1,"inconclusive [inhibitor, single point]",
Cc1cc(C)cc(Oc2ccc(S(=O)(=O)N3CCN(C)CC3)cn2)c1,"inconclusive [inhibitor, partial curve, poor fit]",
C[C@H](NC(=O)c1[nH]cnc1C(=O)Nc1ccc(CNC(=O)OC(C)(C)C)cc1)C(=O)OCc1ccccc1,active: 9.28 µM,
COc1ccc(C)cc1N1CC(C(=O)Nc2ccccc2N2CCCCC2)CC1=O (centres undefined),"inconclusive [inhibitor, single point]",
C/C(=N\NC(=O)c1ccc(F)cc1)c1cccc(NC(=O)c2cccc(F)c2)c1,"inconclusive [inhibitor, partial curve, poor fit]",
C=CCc1cccc(/C=N/NC(=O)CNc2ccccc2)c1O,"inconclusive [inhibitor, partial curve, poor fit]",
Cc1ccc(N(CCC#N)C(=O)COC(=O)c2cc(C)oc2C)cc1,"inconclusive [inhibitor, single point]",
O=c1c(Cc2ccc(F)cc2)c(O)ccn1Cc1ccc(F)cc1,"inconclusive [inhibitor, single point]",
O=C(CCCSc1ccc(Cl)cc1)Nc1cc(S(=O)(=O)N2CCOCC2)ccc1O,"inconclusive [inhibitor, partial curve]",
CN(C)S(=O)(=O)c1ccc2c(c1)/C(=C/c1cc3c([nH]1)CCCC3)C(=O)N2,active: 2.08 µM,
O=[N+]([O-])c1ccc(O)c(/C=N/n2c(CO)nc3ccccc32)c1,"inconclusive [inhibitor, full curve, poor fit]",
CCOCc1cc(CN2CCCC(CNC(=O)c3ccco3)C2)ccc1OC (centres undefined),"inconclusive [inhibitor, partial curve, poor fit]",
CCC1CCCCN1C(=S)NCc1ccccc1 (centres undefined),,inactive: 5.59%
CCOc1ccc(CN(C)c2ccc(S(=O)(=O)N3CCN(C)CC3)cc2[N+](=O)[O-])cc1OC,"inconclusive [inhibitor, single point]",
CCCn1c(=N)c(S(=O)(=O)c2ccc(F)cc2)cc2c(=O)n3ccccc3nc21,"inconclusive [inhibitor, single point]",
O=C(O)c1cc2nc(-c3ccccc3)cc(-c3ccccc3)n2n1,"inconclusive [inhibitor, single point]",
CC(C)(C)[C@H]1CCC(=O)N([C@H](CSc2ccccc2)Cc2ccccc2)CC1,"inconclusive [inhibitor, single point]",
CC(C)c1ccc(/C=C/C(=O)NC(=S)Nc2ccc(CN3CCOCC3)cc2)cc1,"inconclusive [inhibitor, single point]",
Cc1nnc(C)n1/N=C/c1cc2ccccc2nc1Cl,"inconclusive [inhibitor, single point]",

SMILES,Potency,"activity change, negative = inhibition"
Cc1onc(-c2ccccc2Cl)c1C(=O)N1CCN(c2ccccc2)CC1,"inconclusive [inhibitor, single point]",
CC(C)CN(C)Cc1c(C(=O)N2CCc3ccccc3C2)nc2ccc(Cl)cn12,active: 7.38 µM,
COc1ccc(-c2cc(=O)c3c(OC)c(OC)c(OC)cc3o2)cc1,"inconclusive [inhibitor, partial curve]",
COc1ccc(Br)c(C(=O)OCC(=O)N2CCC(Cc3ccccc3)CC2)c1,active: 13.1 µM,
Cc1cc(C)cc(N2C(=O)CSC2c2ccccn2)c1 (centres undefined),"inconclusive [inhibitor, single point]",
CCCN1C(=O)c2ccccc2NC1c1ccc(Cl)c(Cl)c1 (centres undefined),"inconclusive [inhibitor, single point]",
Cc1cccc(NC(=O)c2sc3nc4c(c(-c5ccco5)c3c2N)CCC4)c1,active: 2.08 µM,
CC(=O)N1CCN(c2cc3c(cc2F)c(=O)c(C(=O)O)cn3C2CC2)CC1,"inconclusive [inhibitor, partial curve]",
COc1ccc(C(=O)N2c3cc4c(cc3C(C)=CC2(C)C)OCO4)cc1,"inconclusive [inhibitor, single point]",
CCN1C(=O)/C(=C\c2nc3ccccc3c(=O)n2CC)c2ccccc21,"inconclusive [inhibitor, partial curve, poor fit]",
Cc1ccc(S(=O)(=O)Nc2cccc(C(=O)NCCCn3ccnc3)c2)cc1F,"inconclusive [inhibitor, single point]",
COc1cccc(CC(=O)Nc2ccc(-c3csc(C)n3)cc2)c1,"inconclusive [inhibitor, full curve, poor fit]",
COC(=O)CCCC1=CC2=C(c3ccccc3)C(=O)C(C)(OC(=O)C3CCCC3)C(=O)C2=CN1C1CCCCC1 (centres undefined),active: 10.4 µM,
CCN(CCO)Cc1csc2ccc(C(C)(C)C)cc12,"inconclusive [inhibitor, single point]",
CN1C[C@@H]2C(c3ccccc3)C3(c4ccccc4)CC2(C3)[C@H]1c1ccccc1 (some centres undefined),"inconclusive [inhibitor, single point]",
COC(=O)c1sccc1NC(=O)c1cc(-c2ccc(C)cc2C)nc2ccccc12,"inconclusive [inhibitor, partial curve, poor fit]",
COc1ccc(C2c3ccc(O)cc3Oc3ncn(CCCO)c(=N)c32)cc1OC (centres undefined),"inconclusive [inhibitor, full curve, poor fit]",
CCCN1C(=O)/C(=C/c2cc(C)n(C)c2C)SC1=Nc1ccc(OC)cc1,"inconclusive [inhibitor, single point]",
CCN(CC)C(=O)c1[nH]cnc1C(=O)NCC(=O)OC(C)(C)C,,inactive: 50.5%
